Measurements published in a collection of fitness landscapes (doi:10.1126/science.1257360).
This is one part of the list.

B1: PhoQ; a variant is named by its letters at X, in order, P23837 (parent)
chain: MKKLLRLFFPLSLRVRFLLATAAVVLVLSLAYGMVALIGYSVSFDKTTFRLLRGESNLFYTLAKWENNKLHVELPENIDKQSPTMTLIYDENGQLLWAQRDVPWLMKMIQPDWLKSNGFHEIEADVNDTSLLLSGDHSIQQQLQEVREDDDDAEMTHSVAVNVYPATSRMPKLTIVVVDTIPVELKSSYMVWSWFIYVLSANLLLVIPLLWVAAWWSLRPIEALAKEVRELEEHNRELLNPATTRELTSLVRNLNRLLKSERERYDKYRTTLTDLTHSLKTPLXXLQXXLRSLRSEKMSVSDAEPVMLEQISRISQQIGYYLHRASMRGGTLLSRELHPVAPLLDNLTSALNKVYQRKGVNISLDISPEISFVGEQNDFVEVMGNVLDNACKYCLEFVEISARQTDEHLYIVVEDDGPGIPLSKREVIFDRGQRVDTLRPGQGVGLAVAREITEQYEGKIVAGESMLGGARMEVIFGRQHSAPKDE

Variants of: B1
Assay: enrichment ratio after two sorts for PhoP signalling (ratio (wild type AVST 3.29)); higher = more functional
Conditions: with PhoP (E. coli)

Variant	enrichment ratio
PVNL	≤ 0.25
LTRI	≤ 0.25
GIGN	≤ 0.25
EGQT	≤ 0.25
ELSC	≤ 0.25
GPQI	≤ 0.25
QPFK	≤ 0.25
RGDM	≤ 0.25
SWYQ	≤ 0.25
HLRP	≤ 0.25
SVFG	≤ 0.25
YMWQ	≤ 0.25
LPNN	≤ 0.25
YRRF	≤ 0.25
LFMN	≤ 0.25
HFNR	≤ 0.25
HSQS	≤ 0.25
KYFA	≤ 0.25
GISF	8.06
EFAG	≤ 0.25
EFSQ	≤ 0.25
QIGP	≤ 0.25
AKTS	5.9
HIWL	≤ 0.25

Variant	enrichment ratio
GYYF	≤ 0.25
VVFD	≤ 0.25
KDLF	≤ 0.25
PNTW	≤ 0.25
YWHM	≤ 0.25
NQTD	≤ 0.25
DRLT	≤ 0.25
TMQT	1.6
HYIP	≤ 0.25
TGHC	0.782
VMVD	≤ 0.25
KTCW	≤ 0.25
PTLA	≤ 0.25
IARA	≤ 0.25
IPFD	≤ 0.25
QCLC	3.24
QSED	≤ 0.25
FGVL	4.55
EVHL	≤ 0.25
CCLH	≤ 0.25
MGDK	≤ 0.25
TCCY	9.75
MHVV	≤ 0.25
HTKK	≤ 0.25

Variant	enrichment ratio
NPAK	≤ 0.25
ERHI	≤ 0.25
PMSC	≤ 0.25
PKCS	≤ 0.25
NEWW	≤ 0.25
QESR	≤ 0.25
HNGG	≤ 0.25
VEMR	≤ 0.25
HAWD	≤ 0.25
WVKP	≤ 0.25
LKFR	≤ 0.25
THNC	11.9
EAVQ	≤ 0.25
FICS	≤ 0.25
GKYQ	≤ 0.25
DIDP	≤ 0.25
HNKW	≤ 0.25
PRHQ	≤ 0.25
SIVY	≤ 0.25
AIHN	≤ 0.25
RRHH	≤ 0.25
GSFK	≤ 0.25
TFMH	≤ 0.25
CSYK	≤ 0.25

Variant	enrichment ratio
ANPV	≤ 0.25
RMLP	≤ 0.25
TDKF	≤ 0.25
KLMQ	≤ 0.25
HDQP	≤ 0.25
PTPG	≤ 0.25
VLYL	≤ 0.25
WSVC	≤ 0.25
RHGC	≤ 0.25
SFFV	≤ 0.25
REMC	≤ 0.25
AQLE	10.1
LWFF	≤ 0.25
VAWV	≤ 0.25
RHTE	≤ 0.25
MIDK	≤ 0.25
LCSR	≤ 0.25
WMNF	≤ 0.25
KERL	≤ 0.25
DSDF	≤ 0.25
WMYQ	≤ 0.25
IPRA	≤ 0.25
PVGK	≤ 0.25
NRQY	≤ 0.25

Variant	enrichment ratio
MFFL	≤ 0.25
PWSK	≤ 0.25
EIGD	≤ 0.25
LLLQ	≤ 0.25
PIHW	≤ 0.25
AWPL	≤ 0.25
EFHG	≤ 0.25
RIDA	≤ 0.25
WACP	≤ 0.25
LQRG	≤ 0.25
NEQH	≤ 0.25
YMYN	≤ 0.25
SSEG	≤ 0.25
LLQG	≤ 0.25
FLDS	≤ 0.25
HQRQ	≤ 0.25
DADT	≤ 0.25
RFQG	≤ 0.25
IPSQ	≤ 0.25
QFWQ	≤ 0.25
HMYM	≤ 0.25
RLDD	≤ 0.25
YYHG	≤ 0.25
RELR	≤ 0.25

Variant	enrichment ratio
FCIL	≤ 0.25
KDAE	≤ 0.25
LDDI	≤ 0.25
YVGM	≤ 0.25
GQIY	≤ 0.25
WDIM	≤ 0.25
TQYV	≤ 0.25
AGMN	4.66
FQCL	≤ 0.25
DITW	≤ 0.25
AYDE	≤ 0.25
MGPW	≤ 0.25
YAQI	≤ 0.25
KGYY	≤ 0.25
MEAK	≤ 0.25
NKNM	≤ 0.25
PHLH	≤ 0.25
NRQN	≤ 0.25
HRCC	≤ 0.25
PWIQ	≤ 0.25
FTGW	≤ 0.25
ILPW	≤ 0.25
HTYL	≤ 0.25
TGRF	≤ 0.25

Variant	enrichment ratio
AEPW	≤ 0.25
GWTC	≤ 0.25
YSTN	1.15
ARVN	≤ 0.25
FGEK	≤ 0.25
LWMS	≤ 0.25
HQCG	≤ 0.25
EHGF	≤ 0.25
THYC	≤ 0.25
MLKL	≤ 0.25
MCSS	1.2
YIVM	≤ 0.25
SEPC	≤ 0.25
RYLK	1.61
SMNV	≤ 0.25
QMYT	≤ 0.25
DGGR	≤ 0.25
ERVK	≤ 0.25
PGRK	≤ 0.25
RCML	≤ 0.25
SETI	19.9
DILI	≤ 0.25
NHSV	≤ 0.25
TCWE	≤ 0.25

Variant	enrichment ratio
LVHR	≤ 0.25
MDLD	≤ 0.25
KAKP	≤ 0.25
VMTF	≤ 0.25
FQFA	≤ 0.25
AKFS	≤ 0.25
TFDI	≤ 0.25
CVDP	≤ 0.25
SNFV	≤ 0.25
TLHQ	2.24
SPEK	≤ 0.25
ERVE	≤ 0.25
YIPK	≤ 0.25
PGLC	≤ 0.25
WRVA	≤ 0.25
KSSR	≤ 0.25
TWAA	≤ 0.25
TYHI	≤ 0.25
SPNH	≤ 0.25
LRNE	≤ 0.25
RSCD	≤ 0.25
IHHH	≤ 0.25
SCTI	5.87
FKHA	≤ 0.25

Variant	enrichment ratio
AQNT	≤ 0.25
EHTM	≤ 0.25
HQHI	≤ 0.25
YYDP	≤ 0.25
QSEA	≤ 0.25
CIVL	≤ 0.25
FVWC	≤ 0.25
YCTP	≤ 0.25
GPHS	≤ 0.25
TLRV	≤ 0.25
WDKN	≤ 0.25
QRCR	≤ 0.25
RLPG	≤ 0.25
SMLD	2.2
VMDS	≤ 0.25
RTEG	≤ 0.25
YDRH	≤ 0.25
TNFH	≤ 0.25
TPLH	≤ 0.25
VGGR	≤ 0.25
ARMT	≤ 0.25
RMPE	≤ 0.25
VQFS	≤ 0.25
LDYF	≤ 0.25

Variant	enrichment ratio
RLYI	≤ 0.25
LQPI	≤ 0.25
QENF	≤ 0.25
ANFY	≤ 0.25
FGVF	≤ 0.25
IWQC	≤ 0.25
SMDT	≤ 0.25
ESMD	≤ 0.25
ALLD	1.06
REGH	≤ 0.25
TIES	3.3
DEVA	≤ 0.25
NMPL	≤ 0.25
ECYD	≤ 0.25
PGFL	≤ 0.25
SMLK	2.79
EYMP	≤ 0.25
FWVF	≤ 0.25
YDPH	≤ 0.25
IRRQ	≤ 0.25
FHWL	≤ 0.25
KDRW	≤ 0.25
EISW	≤ 0.25
KLKS	≤ 0.25

Variant	enrichment ratio
NNMW	≤ 0.25
TDAK	≤ 0.25
PKKL	≤ 0.25
NCCH	≤ 0.25
IGWV	≤ 0.25
PFAT	≤ 0.25
IKVF	≤ 0.25
SPWQ	≤ 0.25
EDHM	≤ 0.25
MDLV	≤ 0.25
FKMA	≤ 0.25
FGDR	≤ 0.25
QDWH	≤ 0.25
EVYY	≤ 0.25
FDKR	≤ 0.25
WFGI	≤ 0.25
HQDR	≤ 0.25
APMG	≤ 0.25
HNIS	≤ 0.25
KYND	≤ 0.25
MYQF	≤ 0.25
HVIK	≤ 0.25
VNMW	≤ 0.25
SIVQ	2.45

Variant	enrichment ratio
VHGQ	≤ 0.25
QVSA	≤ 0.25
DHPD	≤ 0.25
WASR	≤ 0.25
TCLR	2.06
FPEQ	≤ 0.25
AKLP	≤ 0.25
EWTC	≤ 0.25
WEKH	≤ 0.25
YNSS	≤ 0.25
VGAS	≤ 0.25
VYKE	≤ 0.25
THCG	5.77
AFLT	≤ 0.25
HCMM	≤ 0.25
EDFG	≤ 0.25
YDKE	≤ 0.25
GGTI	4.18
DLFD	0.45
MLIY	≤ 0.25
PFWY	≤ 0.25
LMAW	≤ 0.25
AQAQ	10.5
PQRG	≤ 0.25

Variant	enrichment ratio
KRSK	≤ 0.25
NYRM	≤ 0.25
SAWH	≤ 0.25
INLI	3.06
PLPQ	≤ 0.25
YYPP	≤ 0.25
FPDI	≤ 0.25
ASFL	3.62
TTGM	28.6
DLLV	≤ 0.25
WTSD	≤ 0.25
LSNW	≤ 0.25
WHTL	≤ 0.25
VSEA	≤ 0.25
LMNC	≤ 0.25
HQGY	≤ 0.25
LMQV	≤ 0.25
NGQG	≤ 0.25
